# From the supplement of paper PMC12217912
# The list shows a part of the results. The full chains were built here from the parent and the listed change. Values near 0.05 are background.
# B1: TEV protease; numbered along this chain (parent)
# chain: MGESLFKGPRDYNPISSSICHLTNESDGHTTSLYGIGFGPFIITNKHLFRRNNGTLVVQSLHGVFKVKDTTTLQQHLVDGRDMIIIRMPKDFPPFPQKLKFREPQREERICLVTTNFQTKSMSSMVSDTSCTFPSGDGIFWKHWIQTKDGQCGSPLVSTRDGFIVGIHSASNFTNTNNYFTSVPKNFMELLTNQEAQQWVSGWRLNADSVLWGGHKVFMVKPEEPFQPVKEATQL
# Variants of: B1
# Assay: raw area under fraction-flipped curve 0-4 h after induction (AUC4h, not background-subtracted), DNA-recorder readout of cleavage of the substrate (dimensionless); higher = more cleavage of the substrate by the protease variant
# Conditions: temperature: 34 °C; time window: 0-4 h after rhamnose induction
# Procedure: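 In vivo DNA recorder in E. coli TOP10(DE3) ΔrhaA at 34 °C. Each TEVp single-site mutant (parent TEVp 0) is paired with a single-site variant of the 7-mer TEVs (canonical ENLYFQ|S). The substrate sits between flexible linkers in a Bxb1-sfGFP-TEVs-SsrA fusion, so cleavage stabilises Bxb1 and speeds flipping of a recombination array, read by NGS. The value is the raw area under the fraction-flipped curve over 0-4 h after rhamnose induction (AUC4h), with ≥20 reads per time point. It is not background-subtracted; inactive controls average about 0.047.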
# 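Further: Bxb1 expression induced with 0.2% (w/v) L-rhamnose at OD600 near 0.5, cultures sampled hourly, flipped fraction per protease–substrate barcode pair counted by paired-end Illumina sequencing.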
Variant,area with substrate ENLYFAS,area with substrate ENLYFCS,area with substrate ENLYFDS,area with substrate ENLYFES,area with substrate ENLYFFS,area with substrate ENLYFHS,area with substrate ENLYFIS,area with substrate ENLYFKS,area with substrate ENLYFLS,area with substrate ENLYFMS,area with substrate ENLYFPS,area with substrate ENLYFRS,area with substrate ENLYFSS,area with substrate ENLYFVS,area with substrate ENLYFWS,area with substrate ENLYFYS,area with substrate ENLYFNS,area with substrate ENLYFTS,area with substrate ENLYFGS
MGESLFKGPRDYNPISSSICHLTNESDGHTTSLYGIGFGPFIITNKHLFRRNNGTLVVQSLHGVFKVKDTTTLQQHLVDGRDMIIIRMPKDFPPFPQKLKFREPQREERNCLVTTNFQTKSMSSMVSDTSCTFPSGDGIFWKHWIQTKDGQCGSPLVSTRDGFIVGIHSASNFTNTNNYFTSVPKNFMELLTNQEAQQWVSGWRLNADSVLWGGHKVFMVKPEEPFQPVKEATQL [I110N],0.0581,0.0589,0.0443,0.0639,0.0464,0.0638,0.051,0.0505,0.0593,0.0566,0.0497,0.0622,0.0842,0.0552,0.0585,0.0523,,,
MGESLFKGPRDYNPISSSICHLTNESDGHTTSLYGIGFGPFIITNKHLFRRNNGTLVVQSLHGVFKVKDTTTLQQHLVDGRDMIIIRMPKDFPPFPQKLKFREPQREERKCLVTTNFQTKSMSSMVSDTSCTFPSGDGIFWKHWIQTKDGQCGSPLVSTRDGFIVGIHSASNFTNTNNYFTSVPKNFMELLTNQEAQQWVSGWRLNADSVLWGGHKVFMVKPEEPFQPVKEATQL [I110K],0.0354,0.0604,0.0533,0.066,0.07,0.0479,0.0534,0.0483,0.0683,0.0683,0.0616,0.0409,,0.0537,,0.059,0.0567,0.0665,
MGESLFKGPRDYNPISSSICHLTNESDGHTTSLYGIGFGPFIITNKHLFRRNNGTLVVQSLHGVFKVKDTTTLQQHLVDGRDMIIIRMPKDFPPFPQKLGFREPQREERICLVTTNFQTKSMSSMVSDTSCTFPSGDGIFWKHWIQTKDGQCGSPLVSTRDGFIVGIHSASNFTNTNNYFTSVPKNFMELLTNQEAQQWVSGWRLNADSVLWGGHKVFMVKPEEPFQPVKEATQL [K100G],0.0577,0.0562,0.0639,0.0498,0.0588,0.0593,0.0543,0.0628,0.0606,0.0552,0.0656,0.0698,0.063,0.0536,0.0587,,0.0526,0.058,0.0682
MGESLFKGPRDYNPISSSICHLTNESDGHTTSLYGIGFGPFIITNKHLFRRNNGTLVVQSLHGVFKVKDTTTLQQHLVDGRDMIIIRMPKDFPPFPQKLKFREPQREERICLVTTNEQTKSMSSMVSDTSCTFPSGDGIFWKHWIQTKDGQCGSPLVSTRDGFIVGIHSASNFTNTNNYFTSVPKNFMELLTNQEAQQWVSGWRLNADSVLWGGHKVFMVKPEEPFQPVKEATQL [F117E],0.0596,0.0568,,0.0656,0.071,0.0663,0.0559,0.0647,,,0.0536,0.0584,0.0586,,,0.0583,0.0655,0.0559,
MGESLFKGPRDYNPISSSICHLTNESDGHTTSLYGIGFGPFIITNKHLFRRNNGTLVVQSLHGVFKVKDTTTLQQHLVDGRDMIIIRMPKDFPPFPQKRKFREPQREERICLVTTNFQTKSMSSMVSDTSCTFPSGDGIFWKHWIQTKDGQCGSPLVSTRDGFIVGIHSASNFTNTNNYFTSVPKNFMELLTNQEAQQWVSGWRLNADSVLWGGHKVFMVKPEEPFQPVKEATQL [L99R],0.0723,0.0997,0.0828,0.0612,0.0584,,0.0749,,0.0516,0.0713,0.0714,,,0.0659,0.066,,0.0858,0.0823,
MGESLFKGPRDYNPISSSICHLTNESDGHTTSLYGIGFGPFIITNKHLFRRNNGTLVVQSLHGVFKVKDTTTLQQHLVDGRDMIIIRMPKDFPPFPQKLKFREPQREERICLVTTNFQTKKMSSMVSDTSCTFPSGDGIFWKHWIQTKDGQCGSPLVSTRDGFIVGIHSASNFTNTNNYFTSVPKNFMELLTNQEAQQWVSGWRLNADSVLWGGHKVFMVKPEEPFQPVKEATQL [S121K],0.0615,,0.0575,0.0749,0.0664,0.0648,0.0533,0.066,0.0646,0.0728,0.0474,0.057,0.0504,,0.0538,0.0253,0.0552,0.0483,0.0814
MGESLFKGPRDYNPISSSICHLTNESDGHTTSLYGIGFGPFIITNKHLFRRNNGTLVVQSLHGVFKVKDTTTLQQHLVDGRDMIIIRMPKDFPPFPQKLKFREPQREERICLVTTPFQTKSMSSMVSDTSCTFPSGDGIFWKHWIQTKDGQCGSPLVSTRDGFIVGIHSASNFTNTNNYFTSVPKNFMELLTNQEAQQWVSGWRLNADSVLWGGHKVFMVKPEEPFQPVKEATQL [N116P],0.0523,,,0.0787,0.0756,0.0837,0.0566,0.0364,,0.0523,0.0452,0.0585,0.0585,,0.0343,0.0612,0.0655,0.043,0.0344
MGESLFKGPRDYNPISSSICHLTNESDGHTTSLYGIGFGPFIITNKHLFRRNNGTLVVQSLHGVFKVKDTTTLQQHLVDGRDMIIIRMPKDFPPFPQKLKFREPQREERICLVTTLFQTKSMSSMVSDTSCTFPSGDGIFWKHWIQTKDGQCGSPLVSTRDGFIVGIHSASNFTNTNNYFTSVPKNFMELLTNQEAQQWVSGWRLNADSVLWGGHKVFMVKPEEPFQPVKEATQL [N116L],0.0565,0.0647,0.0528,,0.0605,0.0672,0.113,0.0841,,0.0668,0.0678,0.0472,0.062,0.069,0.08,,,0.0553,0.065
